From PubChem BioAssay AID602332 (National Center for Advancing Translational Sciences (NCATS), 2012)
Values joined by “and” are separate entries in the source; they are usually repeats but may differ in a detail not shown here. Equal values may be shown once. The campaign covered roughly 420,000 compounds. About 75 (0.02%) were called active. Calls come from the whole dose curve; as a rule, active = well fitted activation curve with a large enough effect; inconclusive = small, poorly fitted or top-dose-only effect; inactive = no such curve, though single readings can be large or run the other way. This is a selection; strong and weak results do not stand in their true shares.

Test: qHTS for Inducers of the Endoplasmic Reticulum Stress Response (ERSR) in Human Glioma: qHTS; note: nearly all actives have a fitted effect of over 35% in size; for activation: % of control where 0% means no effect
Conditions: U87-MG GRP78 promoter luciferase reporter, 16 h; activation: stronger effect = higher value
Summary of the method: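 Stably transfected U87-MG glioma cells carrying a GRP78-based luciferase sensor; 16 h compound incubation. Luminescence end-point read 10 min after Bright-Glo addition at room temperature.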
Potency is the fitted concentration of half-maximal effect.

activation, inactive:
O=C1C2C(c3cccc(/C=C/c4ccccc4)c3)CC=CC2C(c2ccc3ccccc3c2)N1Cc1ccccc1 (centres undefined) 1.84%
COc1ccc(-c2cc(C(=O)N3CCOCC3)no2)cc1 -15.8%
c1ccc(-c2noc(-c3ccc4ccccc4c3)n2)nc1 -16.4%
CCCCn1c(=O)[nH]c(=O)c2c1nc(Cn1ncc(Cl)c(Cl)c1=O)n2CCC -19%
Cc1c(C(=O)c2no[n+]([O-])c2C(=O)c2cnn(C)c2C)cnn1C -18.5%
CCCOc1ccc(C(=O)CCN2CCN(C(=O)OCC)CC2)cc1 -16.9%
CC(C)(C)[C@@H]1CCC(=O)N(CC[C@H](Sc2ccccc2)c2ccccc2)CC1 11.4%
Cn1ncc(S(=O)(=O)Cc2ccccc2)c(Br)c1=O -14.7%
O=C1Cc2c([nH]c3ccc(Br)cc23)-c2ccccc2N1 7.54% and -2.34% and 3.21%
CCc1ccc(C(=O)Nc2nc3ccccc3[nH]2)cc1 -17.6%
COc1ccc(/C=C2\C(=O)ON=C2c2ccccc2)cc1OC -13.4%
CC(=O)OC1CC[C@]2(C)C(CC(OC(C)=O)[C@@]3(C)C4=CC(=O)OC(c5ccoc5)[C@]4(C)CCC23)C1(C)C (some centres undefined) 13%
O=c1c(-c2ccc(O)cc2)coc2cc(O)ccc12 1.58% [middle of 7 runs]
COc1ccc(O)c(-c2cc(-c3cccc(Br)c3)n[nH]2)c1 -18.6%
Cc1ccc(N2C(=O)CSC23C(=O)Nc2ccccc23)cc1 (centres undefined) 5.36%
COc1ccc(NC(=O)N2CCc3ccccc32)cc1 -12.2%
CC[C@H](C)[C@@H]1O[C@]2(CC[C@@H]1C)C[C@H]1C[C@H](CC=C(C)[C@@H](O[C@@H]3C[C@H](OC)[C@H](O[C@@H]4C[C@H](OC)[C@H](O)[C@H](C)O4)[C@H](C)O3)[C@@H](C)C=CC=C3CO[C@@H]4[C@@H](O)C(C)=C[C@@H](C(=O)O1)[C@]34O)O2 -5.27%
N#C/C(=C\c1ccc(O)c(O)c1)C(=O)NCCc1ccccc1 7.24%
O=C1c2c(O)cc(O)cc2O[C@H](c2ccc(O)c(O)c2)C1O (some centres undefined) 9.67%
Cc1ccc(-n2nnnc2Sc2ccc(S(=O)(=O)NCCN(C)C)cc2[N+](=O)[O-])cc1 -15.3%
CN(C)c1ccc(/C=C/c2ccc3c4ccccc4ccc3[n+]2-c2ccccc2)cc1 -18.1%
CCC(=O)Nc1ccc2oc(-c3cccc(C)c3)nc2c1 -12.3%
COC(=O)CSc1nc2c(c(=O)n(C)c(=O)n2C)n1CCC(C)C -0.651%
CC(C)(C)C(=O)N1CCc2cc(-c3csc(N)n3)ccc21 -16.4%
CCc1nnc(NC(=O)c2nc(S(=O)(=O)Cc3ccccc3)ncc2Cl)s1 -19.3%
OC(CNCC1CCCO1)Cn1c2ccc(Br)cc2c2cc(Br)ccc21 (centres undefined) -15.6%
CCCCCN(CCCCC)C(=O)C(CCC(=O)O)NC(=O)c1ccc(Cl)c(Cl)c1 (centres undefined) -4.46% and 10%
COc1ccc(C(=O)Nn2c(SCC(=O)NCC3CCCO3)nc3ccccc3c2=O)cc1 (centres undefined) -12.9%
C[C@@H]1CC=C[C@H]2[C@H]1C(=O)N(Cc1ccccc1)[C@H]2c1ccc2ccccc2c1 1.28%
CCOC(=O)c1nnc(-c2ccccc2)nc1Sc1ccccc1Cl -14.9%
Cc1noc2ncnc(Sc3ccc(Cl)cc3)c12 -14.8%
CCC1CC=CC2C1C(=O)N(Cc1ccccc1)C2c1ccoc1 (centres undefined) -12.7%
COc1ccc(C(=O)c2c(C(F)(F)F)oc3c2C(=O)c2ccccc2C3=O)cc1OC -14.4%
C[C@]12CC[C@@H]3c4ccc(OC(=O)c5ccccc5)cc4CC[C@H]3[C@@H]1CC[C@@H]2O 0.365%
CCC(C(=O)C(C)C(O)C(C)CCc1ccc(C)c(O)c1C(=O)O)C1OC(CC)(C2CC[C@@](O)(CC)C(C)O2)CC1C (some centres undefined) 1.47%
COc1ccc2cc(-c3cc(C(=O)O)c4ccccc4n3)ccc2c1 -16%
CCS(=O)(=O)c1ncc(Cl)c(C(=O)Nc2ccc(S(=O)(=O)N(C)c3ccccc3)cc2)n1 -10.8% and -19.2%
COc1cc(C2c3[nH]c4ccccc4c3CC3C(=O)N4C(Cc5c([nH]c6ccccc56)C4c4cc(OC)c(OC)c(OC)c4)C(=O)N32)cc(OC)c1OC (centres undefined) 5.7%
CC[n+]1c(/C=C(/C)SC)sc2ccccc21 -3.39%
C[C@@H](CCc1ccc(O)cc1)NCCc1ccc(O)c(O)c1 -2.2% and -1.45%
Brc1ccc(-c2nc(-c3ccccn3)no2)o1 -16.3%
CC(C)(C)c1ccc(S(=O)(=O)/C=C/C#N)cc1 -10.9%
C#C[C@]1(O)CC[C@@H]2[C@H]3CCC4=Cc5oncc5C[C@]4(C)[C@@H]3CC[C@@]21C -2.71%
NC(=Nc1ccccc1)NC(=O)c1nc(Cl)c(N)nc1N -4.22% [middle of 4 runs]
Cc1ccc(CNC(=O)CCc2cn(C)c3ccccc23)cc1 -1.39%
COc1ccc(-n2nc3c(N4CCC(C(=O)NCc5ccccc5C)CC4)nnc(C)c3c2C)cc1 -3% and -17.1%
CN=c1nc(-c2ccccc2)n(-c2ccccc2)s1 5.81% and 3.99% and -14.6%
Cc1ccc(CS(=O)(=O)c2ncc(Cl)c(C(=O)Nc3ccc(OC(F)F)cc3)n2)cc1 -18.5%
O=C(CCl)N1CCN(S(=O)(=O)Cc2ccccc2)CC1 -16.1%
O=C(N/N=C/C=C/c1ccco1)c1cccnc1 -2.31%
C=C(CC)C(=O)c1ccc(OCC(=O)O)c(Cl)c1Cl 1.55%
N#C/C(=C\c1ccc(O)c(O)c1)C(=O)Nc1ccccc1 9.78%
CC(C)N(c1ccccc1)c1ccc(NC(=O)CCl)cc1 -15.2%
O=S1(=O)CCOC[C@H](CC2CCCCC2)N1Cc1ccccc1Br 2.66%
O=C(CN1C(=O)c2ccccc2S1(=O)=O)c1ccccc1 -14.6%
Brc1c(Br)c(Br)c2[nH]cnc2c1Br -7.46% and -10.6%
COc1ccc2nc(Sc3c([N+](=O)[O-])nc(C)n3Cc3ccccc3)[nH]c2c1 -15.8%
CN(C)c1cccc(C(=O)Nc2nc3ccccc3[nH]2)c1 -12.3%
COc1ccc(-c2coc3cc(O)ccc3c2=O)cc1 -4.56% and -3.91%
CCOC(=O)/C=C/c1ccc(C(F)(F)F)cc1S(=O)(=O)NC(C)(C)C -1.97%
NC(=NC1C2CC3CC(C2)CC1C3)Nc1ccc(I)cc1 (centres undefined) -4.66% and -3.12%
C#C[C@]1(O)CCC2C3CCC4=Cc5oncc5C[C@@]4(C)C3CC[C@@]21C (some centres undefined) -3.76%
Cc1cccc(C(=O)O/N=C(\N)c2ccccn2)c1 -16.5%
O=C(Nc1nc2ccc(Cl)cc2s1)c1ccco1 -13.6%
OCCN1CCN(CC/C=C2/c3ccccc3Sc3ccc(C(F)(F)F)cc32)CC1 -7.89% [middle of 4 runs]
COc1c(-c2coc3cc4c(cc3c2=O)CC(O)C(C)(C)O4)ccc2c1C=CC(C)(C)O2 (centres undefined) -12.6%
CCn1c(/C=C/c2ccc([N+](=O)[O-])o2)nc2ccccc2c1=O -16.1%
Oc1ccc(/C=C\c2cc(O)cc(O)c2)cc1 -1.05% and -4.7%
NNCCc1ccccc1 4.09% and 2.6% and 1.3%
Cn1cc([N+](=O)[O-])c(C(=O)Nc2cc(Oc3ccccc3)cc([N+](=O)[O-])c2)n1 -14.3%
Cc1ccc2nc(-c3cccc(N)c3)[nH]c2c1 -13.7%
O=C(NC1CCCC1)c1cc(-c2cccs2)on1 6.06%
CCCOc1ccc(C(=O)C(CN2CCOCC2)c2ccccc2)cc1 (centres undefined) -14.8%
CC1CC(C)(C)Nc2ccc(OC(=O)c3ccco3)cc21 (centres undefined) -15%

Potency, active:
Cc1c(O)cc2c(c1O)C(=O)CC(c1ccccc1)O2 (centres undefined) 28.2 µM
CCCc1[nH]nc2c1C(C1CCCCC1)C(C#N)=C(N)O2 (centres undefined) 35.5 µM
Cc1cccc(C)c1NC(=S)NCCc1ccc(O)c(O)c1 15.8 µM
Cc1ccccc1NC(=O)C(Cl)=C(Cl)Cl 35.5 µM
O=C(c1cnccn1)N1CCC2(CCCN(C(c3ccccc3)c3ccccc3)C2)CC1 44.7 µM
COc1c(O)cc2oc(-c3ccc(O)c(O)c3)cc(=O)c2c1O 20 µM
Cc1ccc(NC(=O)c2cc(S(=O)(=O)N(C)C)ccc2N2CCCC2)cc1F 31.6 µM
NC(=S)NN=C1CSSC1 35.5 µM
O=C(c1ccncc1)N1CCC2(CCCN(C(c3ccccc3)c3ccccc3)C2)CC1 35.5 µM
CC(C)(C)c1ccc(C(=O)NC(=S)NNC(=O)c2cccs2)cc1 14.1 µM
